In patent publication EP4696711A1, “ANTIGEN BINDING MOLECULE SPECIFICALLY BINDING TO EGFR AND MUC1, DRUG CONJUGATE THEREOF, AND MEDICAL USE THEREOF” (Jiangsu Hengrui Pharmaceuticals Co., Ltd., priority 2023, dated 2024):

Legend:
HPAC cells = settings: 6 days, CTG
[1] = test system: human pancreatic acinar epithelial carcinoma cell HPAC tumor-bearing mice; experiment: Efficacy of ADCs in in vivo HPAC CDX model; settings: 6 mpk
HCC827 cells = settings: 6 days, CTG
[2] = test system: human non-small cell lung cancer HCC827 tumor-bearing mice; experiment: Efficacy of ADCs in in vivo HCC827 CDX model; settings: 6 mpk
[3] = D1 D9, intraperitoneal injection, D30
[4] = one dose, intraperitoneal injection, D30

B1: IgG1-9-A: negative control antibody IgG1 conjugated to toxin 9-A; n = 6.15 (conjugate)
heavy: QVQLVQSGAEVKKPGASVKVSCKASGYTFTNSWIGWFRQAPGQGLEWIGDIYPGGGYTNYNEIFKGKATMTADTSTNTAYMELSSLRSEDTAVYYCSRGIPGYAMDYWGQGTLVTVSS[human IgG1 constant region not spelt out]
light: DIQMTQSPSSLSASVGDRVTMSCKSSQSLLNSGDQKNYLTWYQQKPGKAPKLLIYWASTGESGVPSRFSGSGSGTDFTFTISSLQPEDIATYYCQNDYSYPWTFGQGTKVEIKRTVAAPSVFIFPPSDEQLKSGTASVVCLLNNFYPREAKVQWKVDNALQSGNSQESVTEQDSKDSTYSLSSTLTLSKADYEKHKVYACEVTHQGLSSPVTKSFNRGEC
In the case of B1, the IC50 (HPAC cells) is reported as > 1000 nM, the IMax% (HPAC cells) is reported as 50.13% and the “Mean tumor volume (mm^3) D30” value [1, 3] is reported as 1566.45 mm^3. The “Tumor growth inhibition rate (%) D30” value [1, 3] was 7.22%, the “Number of animals per group (number of deaths)” value ([1]; number of deaths, D1 D9 i.p.) was 8(0) and the IC50 (HCC827 cells) was 163 nM. The IMax% (HCC827 cells) was 84.25%, the “Mean tumor volume (mm^3) D30” value [2, 4] was 751.50 mm^3 and the “Tumor growth inhibition rate (%) D30” value [2, 4] was -13.71%. For the same molecule, the “Number of animals per group (number of deaths)” value ([2]; number of deaths, one dose i.p.) was 10(0).
